Laboratory results: PubChem BioAssay (Tox21)
“And” between values parts separate entries of the source, which are not always exact repeats. Identical values can stand only once. The shares of active, inactive and inconclusive entries below differ from those in the screen. Potencies of inconclusive entries are doubtful fits and often do not repeat. Some structures have more than one record in an assay (separate samples or runs), and their calls can disagree. The source made the active and inactive calls. The call rests on the fitted dose curve; in most records, active means well fitted curve in the direction sought with a large enough effect in the repeat runs; inconclusive means weak or mixed curves; inactive means no such curve, though single readings can be large; an effect the other way counts as inactive or inconclusive.

Experiments:
[1] = Human pregnane X receptor (PXR) small molecule agonists, qHTS cell viability counter screen (AID 1346977); further: nearly all actives have a fitted effect of over 50% in size
In short: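 Measures live-cell protease fluorescence (CellTiter-Fluor) in PXR-Luc HepG2 cells treated 24hr with compounds at 37C. Cells had 5hr to attach before pin transfer of DMSO solutions.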

[2] = Caspase-3/7 induction in CHO-K1 cells by small molecules, qHTS cell viability counter screen (AID 1346979); further: nearly all actives have a fitted effect of over 35% in size
In short: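 In the same wells as the caspase read, viability of compound-treated wild-type CHO-K1 cells was assessed using CellTiter-Fluor, added after 16hr at 37C and measured by fluorescence following 1hr further incubation.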

[3] = molecular target: Nuclear receptor subfamily 1 group I member 2 (Homo sapiens) (UniProt O75469); experiment: Human pregnane X receptor (PXR) small molecule agonists, qHTS assay (AID 1346982); further: nearly all actives have a fitted effect of over 35% in size
In short: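 Cells: HepG2 stably carrying PXR-Luc. Medium held 5% charcoal-stripped FBS. Compounds in DMSO added after 5 hr plating, incubated 24 hr, then luminescence quantified with ONE-Glo.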

[4] = molecular target: Cytochrome P450 2C9 (Homo sapiens) (UniProt P11712); experiment: Cytochrome P450 Family 2 Subfamily C Member 9 (CYP2C9) small molecule antagonists: luciferase reporter qHTS assay (AID 1671198); further: nearly all actives have a fitted effect of over 50% in size
Chain of UniProt P11712 (P11712 whole entry, looked up): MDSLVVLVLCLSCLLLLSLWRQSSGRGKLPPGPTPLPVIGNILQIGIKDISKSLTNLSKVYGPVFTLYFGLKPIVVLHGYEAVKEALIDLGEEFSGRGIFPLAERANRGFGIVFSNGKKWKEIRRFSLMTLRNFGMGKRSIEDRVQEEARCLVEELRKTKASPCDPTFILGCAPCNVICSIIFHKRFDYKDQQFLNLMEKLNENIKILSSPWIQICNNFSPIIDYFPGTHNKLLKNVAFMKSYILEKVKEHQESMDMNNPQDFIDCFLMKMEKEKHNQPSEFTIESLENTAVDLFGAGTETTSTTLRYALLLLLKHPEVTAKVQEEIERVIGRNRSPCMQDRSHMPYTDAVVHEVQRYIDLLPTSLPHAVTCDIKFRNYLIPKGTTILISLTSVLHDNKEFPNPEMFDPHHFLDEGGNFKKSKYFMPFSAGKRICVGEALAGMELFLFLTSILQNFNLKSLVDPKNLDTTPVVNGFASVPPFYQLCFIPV
In short: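 Enzyme-substrate mix preincubated with compound 10 min at room temperature; reaction started with NADPH regeneration solution, 1 h 37C. Luminescent luciferin product read after 20 min detection reagent.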

[5] = Caspase-3/7 induction in HepG2 cells by small molecules, qHTS cell viability counter screen (AID 1346981); further: nearly all actives have a fitted effect of over 30% in size
In short: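 Cell viability is measured as a cytotoxicity counter screen alongside the Caspase-Glo 3/7 readout in identical wells. Wild-type HepG2 cells are treated with test compounds for 16 hr at 37 C before CellTiter-Fluor addition and a 1-hr incubation.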

[6] = molecular target: Cytochrome P450 2D6 (Homo sapiens) (UniProt P10635); experiment: Cytochrome P450 Family 2 Subfamily D Member 6 (CYP2D6) small molecule antagonists: luciferase reporter qHTS assay (AID 1671196); further: nearly all actives have a fitted effect of over 50% in size
Chain of UniProt P10635 (P10635 whole entry, looked up): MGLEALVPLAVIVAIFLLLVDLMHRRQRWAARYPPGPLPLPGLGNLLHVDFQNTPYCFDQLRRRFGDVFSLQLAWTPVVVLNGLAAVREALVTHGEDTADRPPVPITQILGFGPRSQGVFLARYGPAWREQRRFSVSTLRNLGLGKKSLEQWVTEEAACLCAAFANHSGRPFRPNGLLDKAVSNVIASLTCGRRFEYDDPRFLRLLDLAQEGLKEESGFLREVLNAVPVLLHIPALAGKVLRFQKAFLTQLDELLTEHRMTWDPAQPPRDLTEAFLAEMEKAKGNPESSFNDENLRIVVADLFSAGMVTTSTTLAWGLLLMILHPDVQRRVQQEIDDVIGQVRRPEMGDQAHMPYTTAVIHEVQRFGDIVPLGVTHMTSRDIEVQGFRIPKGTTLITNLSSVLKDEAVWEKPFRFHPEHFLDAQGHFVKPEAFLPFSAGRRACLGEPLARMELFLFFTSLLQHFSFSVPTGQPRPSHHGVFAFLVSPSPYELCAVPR
In short: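 Enzyme and proluciferin substrate were first combined with test chemical for 10 min at room temperature. Adding NADPH regeneration solution started a 1 h reaction, stopped with luciferin detection reagent and read by luminescence 20 min later.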

[7] = Caspase-3/7 induction in CHO-K1 cells by small molecules, qHTS assay (AID 1346980); further: nearly all actives have a fitted effect of over 15% in size
In short: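 Luminescent Caspase-Glo 3/7 read (30min, room temperature) quantified apoptosis induction. Cells were wild-type CHO-K1, treated with compound for 17hr at 37 C and 5% CO2.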

[8] = molecular target: Cytochrome P450 1A2 (Homo sapiens) (UniProt P05177); experiment: Cytochrome P450 Family 1 Subfamily A Member 2 (CYP1A2) small molecule antagonists: luciferase reporter qHTS assay (AID 1671199); further: nearly all actives have a fitted effect of over 50% in size
Chain of UniProt P05177 (P05177 whole entry, looked up): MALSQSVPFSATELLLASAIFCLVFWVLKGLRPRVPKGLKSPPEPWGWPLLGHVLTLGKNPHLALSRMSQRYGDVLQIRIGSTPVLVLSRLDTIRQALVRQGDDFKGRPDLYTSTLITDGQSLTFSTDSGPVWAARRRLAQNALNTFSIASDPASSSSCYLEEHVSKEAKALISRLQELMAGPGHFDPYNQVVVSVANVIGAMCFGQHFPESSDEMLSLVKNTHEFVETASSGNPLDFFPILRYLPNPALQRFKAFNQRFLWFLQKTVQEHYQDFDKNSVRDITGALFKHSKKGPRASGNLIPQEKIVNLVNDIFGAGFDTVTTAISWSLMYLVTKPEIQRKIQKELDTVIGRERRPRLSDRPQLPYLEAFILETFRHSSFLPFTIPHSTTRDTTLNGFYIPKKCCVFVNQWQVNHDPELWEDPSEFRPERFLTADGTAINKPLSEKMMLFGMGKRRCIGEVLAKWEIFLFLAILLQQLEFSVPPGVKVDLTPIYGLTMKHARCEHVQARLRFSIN
In short: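 Compounds were incubated with CYP1A2 and a luminogenic proluciferin substrate for 10 min at room temperature before the reaction was started with NADPH regeneration solution. After 1 h, detection reagent was added and light output, proportional to CYP activity, was recorded.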

[9] = molecular target: Nuclear receptor subfamily 1 group I member 2 (Homo sapiens) (UniProt O75469); experiment: Human pregnane X receptor (PXR) activation by small molecules, qHTS assay (AID 1346985); further: nearly all actives have a fitted effect of over 40% in size
In short: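 DPX-2 cells (HepG2 co-transfected with a PXR response element and a CYP3A4-promoter luciferase construct) were seeded at 2,000 per well, rested 5 hr at 37C, then exposed to DMSO-dissolved compounds for 24 hr. Activation was read as luciferase luminescence.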

[10] = molecular target: Cytochrome P450 2C19 (Homo sapiens) (UniProt P33261); experiment: Cytochrome P450 Family 2 Subfamily C Member 19 (CYP2C19) small molecule antagonists: luciferase reporter qHTS assay (AID 1671197); further: nearly all actives have a fitted effect of over 65% in size
Chain of UniProt P33261 (P33261 whole entry, looked up): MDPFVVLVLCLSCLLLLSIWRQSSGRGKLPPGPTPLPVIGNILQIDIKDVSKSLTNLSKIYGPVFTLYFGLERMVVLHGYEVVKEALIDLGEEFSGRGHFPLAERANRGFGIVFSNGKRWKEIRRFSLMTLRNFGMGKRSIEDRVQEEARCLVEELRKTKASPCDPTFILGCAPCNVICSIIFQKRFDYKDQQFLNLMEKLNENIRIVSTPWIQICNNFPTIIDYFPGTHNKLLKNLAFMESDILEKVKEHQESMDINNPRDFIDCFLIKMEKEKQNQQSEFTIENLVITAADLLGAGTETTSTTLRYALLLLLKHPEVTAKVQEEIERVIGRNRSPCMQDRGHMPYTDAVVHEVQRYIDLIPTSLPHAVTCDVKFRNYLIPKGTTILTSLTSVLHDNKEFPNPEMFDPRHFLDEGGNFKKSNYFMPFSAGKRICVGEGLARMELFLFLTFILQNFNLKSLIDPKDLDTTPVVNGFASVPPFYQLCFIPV
In short: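 First, compounds are pinned into enzyme-substrate mix and held 10 min at room temperature. Second, NADPH regeneration solution is added and plates incubate 1 h at 37C. Third, detection reagent is added and luminescence read after 20 min.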

[11] = molecular target: Voltage-gated inwardly rectifying potassium channel KCNH2 (Homo sapiens) (UniProt Q12809); experiment: Human Ether-a-go-go-Related Gene (hERG) channel small molecule antagonists: fluorescence cell-based qHTS assay (AID 1671200); further: nearly all actives have a fitted effect of over 50% in size
Chain of UniProt Q12809 (Q12809 whole entry, looked up): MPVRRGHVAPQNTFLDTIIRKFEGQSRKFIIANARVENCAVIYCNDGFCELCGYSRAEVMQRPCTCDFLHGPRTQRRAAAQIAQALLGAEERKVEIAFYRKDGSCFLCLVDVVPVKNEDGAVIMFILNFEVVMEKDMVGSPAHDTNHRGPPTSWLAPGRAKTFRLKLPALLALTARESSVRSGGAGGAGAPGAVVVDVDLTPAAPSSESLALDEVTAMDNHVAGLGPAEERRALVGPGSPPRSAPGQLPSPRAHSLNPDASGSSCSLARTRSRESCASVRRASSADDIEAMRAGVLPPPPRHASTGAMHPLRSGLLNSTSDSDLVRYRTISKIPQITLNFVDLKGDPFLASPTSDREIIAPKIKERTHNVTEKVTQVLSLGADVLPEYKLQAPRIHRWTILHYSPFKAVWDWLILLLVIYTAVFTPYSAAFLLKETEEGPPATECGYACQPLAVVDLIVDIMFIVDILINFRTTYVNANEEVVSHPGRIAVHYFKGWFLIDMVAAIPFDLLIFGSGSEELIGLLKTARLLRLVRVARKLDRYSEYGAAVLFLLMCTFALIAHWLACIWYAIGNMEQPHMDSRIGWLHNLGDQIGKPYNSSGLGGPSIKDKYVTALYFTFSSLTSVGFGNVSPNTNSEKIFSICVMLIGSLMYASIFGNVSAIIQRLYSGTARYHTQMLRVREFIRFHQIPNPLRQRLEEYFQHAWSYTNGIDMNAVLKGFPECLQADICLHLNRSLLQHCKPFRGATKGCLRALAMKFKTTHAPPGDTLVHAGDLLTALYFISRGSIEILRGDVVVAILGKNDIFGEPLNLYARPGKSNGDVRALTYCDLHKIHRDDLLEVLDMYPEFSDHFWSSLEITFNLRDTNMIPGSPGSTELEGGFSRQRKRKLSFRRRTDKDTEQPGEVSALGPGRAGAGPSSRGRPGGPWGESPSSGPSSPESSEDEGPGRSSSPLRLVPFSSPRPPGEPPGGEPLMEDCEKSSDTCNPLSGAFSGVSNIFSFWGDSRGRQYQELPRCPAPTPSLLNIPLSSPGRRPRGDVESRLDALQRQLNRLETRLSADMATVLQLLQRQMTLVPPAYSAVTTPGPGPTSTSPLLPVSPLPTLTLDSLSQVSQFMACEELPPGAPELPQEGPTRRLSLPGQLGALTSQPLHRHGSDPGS
In short: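 Quantitative HTS in hERG-U2OS cells: thallium entry through the channel reports activity, read as continuous 480/540 nm fluorescence over 2 min after stimulus addition.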

[12] = molecular target: Cytochrome P450 3A4 (Homo sapiens) (UniProt P08684); experiment: Cytochrome P450 Family 3 Subfamily A Member 4 (CYP3A4) small molecule antagonists: luciferase reporter qHTS assay (AID 1671201); further: nearly all actives have a fitted effect of over 50% in size
Chain of UniProt P08684 (P08684 whole entry, looked up): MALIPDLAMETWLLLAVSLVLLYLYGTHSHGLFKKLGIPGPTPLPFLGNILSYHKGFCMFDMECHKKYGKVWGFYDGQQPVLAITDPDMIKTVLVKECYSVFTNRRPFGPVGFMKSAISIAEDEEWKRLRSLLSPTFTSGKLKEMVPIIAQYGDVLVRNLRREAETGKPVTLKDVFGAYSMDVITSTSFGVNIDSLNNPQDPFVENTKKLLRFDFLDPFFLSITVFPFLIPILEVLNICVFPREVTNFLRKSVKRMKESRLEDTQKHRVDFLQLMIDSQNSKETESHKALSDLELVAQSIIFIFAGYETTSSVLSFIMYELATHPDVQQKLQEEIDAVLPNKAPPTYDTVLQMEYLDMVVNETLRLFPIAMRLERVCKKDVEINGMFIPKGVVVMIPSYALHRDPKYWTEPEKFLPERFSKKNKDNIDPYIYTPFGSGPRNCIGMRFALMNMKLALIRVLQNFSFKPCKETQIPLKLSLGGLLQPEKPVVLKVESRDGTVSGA
In short: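 Inhibition of CYP3A4 is measured as loss of light: the enzyme converts a proluciferin substrate to luciferin, detected luminescently. Reaction ran 1 h at room temperature with NADPH regeneration after a 10 min compound preincubation.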

[13] = molecular target: Nuclear receptor subfamily 1 group I member 2 (Rattus norvegicus) (UniProt Q9R1A7); experiment: Rat pregnane X receptor (rPXR) activation by small molecules, qHTS assay (AID 1346983); conditions: rPXR luciferase reporter cells, One-Glo luminescence, 24 h; max activation: stronger effect = higher value; further: nearly all actives have a fitted effect of over 20% in size
Chain of UniProt Q9R1A7 (Q9R1A7 whole entry, looked up): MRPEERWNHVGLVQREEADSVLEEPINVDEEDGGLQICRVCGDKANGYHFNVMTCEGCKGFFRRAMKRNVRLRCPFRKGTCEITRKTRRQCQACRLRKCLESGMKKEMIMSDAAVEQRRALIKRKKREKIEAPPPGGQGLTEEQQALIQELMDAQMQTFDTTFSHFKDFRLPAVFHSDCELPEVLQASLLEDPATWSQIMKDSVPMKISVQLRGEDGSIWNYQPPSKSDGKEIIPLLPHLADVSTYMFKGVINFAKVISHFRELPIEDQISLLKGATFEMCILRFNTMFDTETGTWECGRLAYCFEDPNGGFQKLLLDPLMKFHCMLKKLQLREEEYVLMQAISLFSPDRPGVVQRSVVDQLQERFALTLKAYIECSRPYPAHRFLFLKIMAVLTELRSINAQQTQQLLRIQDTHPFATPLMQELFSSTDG
In short: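 Luminescent readout (One-Glo luciferase, 30 min room temperature) followed 24 hr compound treatment at 37 C of rPXR cells plated 2,000 per well and preincubated 5hr; qHTS format with compounds delivered in DMSO.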
Potency means the concentration at half of the fitted maximal effect; tags describe the fitted curve by direction and shape.

NCCc1ccc(O)c(O)c1
Potency [1]: active: 30.7 µM and inconclusive: 26.6 µM [cytotoxic, single point]
Potency [2]: active: 61.3 µM
Potency [3]: inconclusive: 30.7 µM [activator, partial curve]
Potency [4]: inconclusive: 44.9 µM [inhibitor, partial curve, poor fit]

O=C1c2cccc(O)c2C(=O)c2c(O)cccc21
Potency [1]: inconclusive: 19.5 µM [cytotoxic, full curve]
Potency [2]: inconclusive: 43.7 µM [cytotoxic, partial curve]
Potency [5]: inconclusive: 21.9 µM [cytotoxic, full curve]
Potency [3]: inconclusive: 3.35 µM [activator, full curve, poor fit]
Potency [6]: inconclusive: 32 µM [inhibitor, partial curve]
Potency [4]: inconclusive: 28.6 µM [inhibitor] and inconclusive: 8.71 µM [inhibitor, full curve, poor fit]

Cc1ccc(N)cc1O
Potency [1]: inconclusive: 61.1 µM [cytotoxic]
Potency [7]: inconclusive: 77 µM [activator]
Potency [3]: active: 34.4 µM

CC(C)(C)C(=O)C(=O)O
Potency [1]: inconclusive: 27.3 µM [rising, single point]
Potency [2]: inactive
Potency [3]: inconclusive: 27.3 µM [activator, single point]
Potency [8]: inactive

CC(CN(C)C)CN1c2ccccc2CCc2ccccc21 (configuration not stated)
Potency [1]: active: 26.6 µM
Potency [2]: inconclusive: 29.8 µM [cytotoxic, partial curve, poor fit]
Potency [5]: inconclusive: 29.8 µM [cytotoxic, partial curve, poor fit]
Potency [3]: active: 23.7 µM
Potency [9]: inconclusive: 10 µM [activator, partial curve, poor fit]
Potency [10]: inconclusive: 7.76 µM [inhibitor]

CN[C@H]1CC[C@@H](c2ccc(Cl)c(Cl)c2)c2ccccc21
Potency [1]: active: 29.8 µM
Potency [7]: inconclusive: 33.5 µM [activator, single point]

COc1ccccc1NC(=O)c1cc2ccccc2cc1O
Potency [1]: inconclusive: 21.7 µM [cytotoxic, single point]
Potency [2]: inconclusive: 27.3 µM [cytotoxic, single point]
Potency [4]: active: 22.4 µM
Potency [8]: active: 1.78 µM

S=c1[nH]c2ccccc2s1
Potency [1]: inconclusive: 9.69 µM [rising, full curve, poor fit]
Potency [7]: inconclusive: 54.5 µM [activator]

CC(C)(C)CC(C)(C)c1ccc(O)c(-n2nc3ccccc3n2)c1
Potency [1]: inconclusive: 61.1 µM [rising, partial curve, poor fit]
Potency [7]: inconclusive: 69.6 µM [activator, single point]
Potency [3]: inconclusive: 54.5 µM [activator, partial curve]
Potency [9]: active: 7.94 µM
Potency [10]: inconclusive: 21.9 µM [inhibitor, full curve, poor fit]
Potency [8]: inconclusive: 28.6 µM [inhibitor, full curve] and inconclusive: 25.2 µM [inhibitor, full curve] and inconclusive: 27.5 µM [inhibitor, partial curve]
Potency [11]: inconclusive: 17.6 µM [inhibitor, partial curve] and inconclusive: 10.7 µM [inhibitor, partial curve]

CC1=C(/C=C/C(C)=C/C=C/C(C)=C/C(=O)O)C(C)(C)CCC1
Potency [1]: inconclusive: 54.4 µM [cytotoxic, partial curve]
Potency [7]: inconclusive: 68.5 µM [activator, single point]
Potency [5]: inconclusive: 68.5 µM [cytotoxic, single point]
Potency [6]: inconclusive: 63.4 µM [inhibitor, partial curve, poor fit]
Potency [10]: inconclusive: 38.9 µM [inhibitor, single point]
Potency [8]: inconclusive: 71.1 µM [inhibitor]
Potency [12]: inconclusive: 24.5 µM [inhibitor, partial curve]

CNCCCC12CCC(c3ccccc31)c1ccccc12
Potency [1]: inconclusive: 33.5 µM [cytotoxic, single point]
Potency [7]: inconclusive: 68.6 µM [activator, single point]
Potency [5]: active: 61.1 µM and inconclusive: 33.5 µM [cytotoxic, single point]

Cc1cc(C2(c3cc(C)c(O)cc3C)OS(=O)(=O)c3ccccc32)c(C)cc1O
Potency [1]: active: 35.5 µM and active: 13.7 µM
Potency [2]: active: 30.6 µM and active: 13.7 µM
Potency [6]: inconclusive: 56.4 µM [inhibitor, partial curve]
Potency [12]: active: 2 µM and active: 2.52 µM

CC(CC1c2ccccc2CCc2ccccc21)CN(C)C (configuration not stated)
Potency [1]: inconclusive: 33.5 µM [cytotoxic, single point]
Potency [2]: inconclusive: 33.5 µM [cytotoxic, single point]
Potency [5]: inconclusive: 33.5 µM [cytotoxic, single point]
Potency [3]: inconclusive: 26.6 µM [activator, partial curve]
Potency [11]: inconclusive: 21.3 µM [inhibitor, partial curve]

O=C(CC(=O)c1ccccc1)c1ccccc1
Potency [1]: inconclusive: 82.7 µM [cytotoxic, partial curve, poor fit]
Potency [2]: inconclusive: 82.7 µM [cytotoxic, single point]
Potency [6]: inconclusive: 48.1 µM [inhibitor, full curve, poor fit]
Potency [8]: active: 3.82 µM

NNCCc1ccccc1
Potency [1]: inactive
Potency [2]: inconclusive: 15 µM [rising, partial curve, poor fit]
Potency [13]: inconclusive: 8.91 µM [activator, partial curve]
Potency [9]: active: 12.6 µM
Potency [6]: active: 2.25 µM and active: 12.3 µM
Potency [4]: active: 25.3 µM and active: 17.4 µM
Potency [8]: active: 11.3 µM and active: 17.4 µM
Potency [11]: inconclusive: 49.1 µM [inhibitor]

NCCO
Potency [1]: inconclusive: 68.6 µM [cytotoxic, single point]
Potency [2]: inconclusive: 68.6 µM [cytotoxic, single point]
Potency [3]: inconclusive: 54.4 µM [activator, partial curve, poor fit]
Potency [6]: inactive and active: 5.03 µM

Cn1cnc([N+](=O)[O-])c1Sc1ncnc2nc[nH]c12
Potency [1]: inconclusive: 6.08 µM [cytotoxic, full curve] and inconclusive: 23.7 µM [cytotoxic, partial curve]
Potency [2]: inconclusive: 33.5 µM [cytotoxic, single point]
Potency [5]: active: 48.2 µM and inconclusive: 29.8 µM [cytotoxic, partial curve, poor fit]
Potency [3]: inconclusive: 30.4 µM [activator]
Potency [8]: inconclusive: 57.7 µM [inhibitor]
Potency [12]: inactive

NC(=O)c1nc(-c2cccc(-c3cc(F)ccc3OCC(F)(F)C(F)(F)F)c2)n[nH]1
Potency [1]: active: 54.5 µM
Potency [7]: inconclusive: 68.6 µM [activator, partial curve, poor fit]
Potency [5]: active: 61.1 µM
Potency [8]: inconclusive: 71 µM [inhibitor, partial curve]
Potency [11]: active: 43.6 µM
Potency [12]: inconclusive: 56.4 µM [inhibitor, partial curve]

O=C1CC2(CCCC2)CC(=O)N1CCCCN1CCN(c2ncccn2)CC1
Potency [1]: inconclusive: 54.5 µM [cytotoxic, single point]
Potency [2]: active: 54.5 µM
Potency [5]: inconclusive: 38.6 µM [cytotoxic, partial curve] and inactive
Potency [11]: inconclusive: 61.6 µM [inhibitor, single point] and inconclusive: 16.9 µM [inhibitor, partial curve, poor fit]

CC(C)(C)C(=O)C1C(=O)c2ccccc2C1=O
Potency [1]: inconclusive: 68.6 µM [cytotoxic, single point]
Potency [2]: active: 27 µM and active: 43.3 µM
Potency [6]: inconclusive: 25.2 µM [inhibitor, partial curve, poor fit]
Potency [8]: inconclusive: 63.3 µM [inhibitor, partial curve]
Potency [12]: active: 28 µM and inconclusive: 63.3 µM [inhibitor, partial curve]

O=C1c2ccccc2C(=O)N1CCc1noc(-c2ccc(CN3CCCCCC3)s2)n1
Potency [1]: inconclusive: 56 µM [cytotoxic]
Potency [2]: inconclusive: 62.9 µM [cytotoxic, single point]
Potency [5]: inconclusive: 62.9 µM [cytotoxic, single point]
Potency [10]: active: 8.19 µM
Potency [8]: inconclusive: 65.1 µM [inhibitor, partial curve]
Potency [11]: active: 20.1 µM

N#[N+]c1ccc2c(S(=O)(=O)[O-])cccc2c1O
Potency [1]: inconclusive: 68.6 µM [cytotoxic, partial curve, poor fit]
Potency [2]: inconclusive: 77 µM [cytotoxic, single point]
Potency [8]: inconclusive: 39.9 µM [inhibitor, partial curve]
Potency [12]: inconclusive: 71 µM [inhibitor]

O=c1c(O)c(-c2ccc(O)cc2O)oc2cc(O)cc(O)c12
Potency [1]: inconclusive: 64.5 µM [cytotoxic, single point]
Potency [2]: inconclusive: 51.2 µM [cytotoxic, partial curve]
Potency [5]: inconclusive: 45.7 µM [cytotoxic, partial curve]
Potency [3]: inconclusive: 25.7 µM [activator, single point]
Potency [6]: inconclusive: 33.5 µM [inhibitor, partial curve, poor fit]
Potency [10]: inactive
Potency [4]: active: 21.1 µM
Potency [8]: inconclusive: 59.5 µM [inhibitor, partial curve]
